From patent EP4786492A1 (Simcere Zaiming Pharmaceutical Co., Ltd., dated 2026)
Where “and” joins values, the source holds several entries; their conditions need not be identical. Equal entries are not always repeated. Values belong to the binder of their own block, whether it stands above or below them.

Columns and labels:
[1] = target: T1, monkey DLL3 on CHO-K1-cyno DLL3 cells (cynomolgus monkey); assay: FACS, CHO-K1-cyno DLL3 cells, 100 nM antibody
T1 construct: also called cynomolgus monkey DLL3
T1 chain: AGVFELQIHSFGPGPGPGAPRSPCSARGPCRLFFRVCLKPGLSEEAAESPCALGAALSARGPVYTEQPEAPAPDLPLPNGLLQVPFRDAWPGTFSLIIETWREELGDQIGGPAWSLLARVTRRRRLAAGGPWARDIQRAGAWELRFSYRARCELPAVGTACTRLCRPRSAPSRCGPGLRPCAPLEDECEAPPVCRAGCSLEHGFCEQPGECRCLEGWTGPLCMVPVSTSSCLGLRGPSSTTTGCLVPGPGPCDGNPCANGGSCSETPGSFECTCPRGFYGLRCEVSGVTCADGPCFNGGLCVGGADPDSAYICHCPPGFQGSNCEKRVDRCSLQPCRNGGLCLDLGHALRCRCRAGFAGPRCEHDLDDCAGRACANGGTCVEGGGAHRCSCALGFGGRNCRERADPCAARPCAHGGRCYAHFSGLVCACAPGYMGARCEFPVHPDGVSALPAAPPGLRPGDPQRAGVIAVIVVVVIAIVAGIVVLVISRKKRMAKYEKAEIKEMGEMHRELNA

[2] = target: T1, monkey DLL3 on CHO-K1-cyno DLL3 cells; assay: FACS, CHO-K1-cyno DLL3 cells, 0.0064 nM antibody
[3] = target: T1, monkey DLL3 on CHO-K1-cyno DLL3 cells; assay: FACS, CHO-K1-cyno DLL3 cells, 0.032 nM antibody
[4] = target: T1, monkey DLL3 on CHO-K1-cyno DLL3 cells; assay: FACS, CHO-K1-cyno DLL3 cells, 0.16 nM antibody
[5] = target: T1, monkey DLL3 on CHO-K1-cyno DLL3 cells; assay: FACS, CHO-K1-cyno DLL3 cells, 0.00128 nM antibody
[6] = target: T1, monkey DLL3 on CHO-K1-cyno DLL3 cells; assay: FACS, CHO-K1-cyno DLL3 cells, 20 nM antibody
[7] = target: T1, monkey DLL3 on CHO-K1-cyno DLL3 cells; assay: FACS, CHO-K1-cyno DLL3 cells, 0.8 nM antibody
[8] = target: T1, monkey DLL3 on CHO-K1-cyno DLL3 cells; assay: FACS, CHO-K1-cyno DLL3 cells, 4 nM antibody
[9] = target: T2, mouse DLL3 on CHO-K1-mDLL3 cells (mouse, UniProt O88516 33-490); assay: FACS, CHO-K1-mDLL3 cells, 0.0064 nM antibody
T2 sequence: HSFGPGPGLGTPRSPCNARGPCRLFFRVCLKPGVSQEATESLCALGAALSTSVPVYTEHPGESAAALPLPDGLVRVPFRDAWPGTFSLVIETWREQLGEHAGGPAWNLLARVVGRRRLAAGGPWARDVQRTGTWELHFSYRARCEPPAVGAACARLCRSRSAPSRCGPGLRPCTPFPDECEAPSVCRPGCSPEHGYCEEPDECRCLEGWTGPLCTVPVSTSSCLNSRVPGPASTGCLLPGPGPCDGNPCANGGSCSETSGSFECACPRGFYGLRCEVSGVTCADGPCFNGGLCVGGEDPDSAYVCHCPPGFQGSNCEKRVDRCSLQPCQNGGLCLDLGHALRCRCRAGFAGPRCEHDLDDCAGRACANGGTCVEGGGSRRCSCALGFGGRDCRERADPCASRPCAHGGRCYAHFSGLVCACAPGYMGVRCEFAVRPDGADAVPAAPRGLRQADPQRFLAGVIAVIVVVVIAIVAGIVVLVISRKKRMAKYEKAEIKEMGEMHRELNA

[10] = target: T2, mouse DLL3 on CHO-K1-mDLL3 cells; assay: FACS, CHO-K1-mDLL3 cells, 0.8 nM antibody
[11] = target: T2, mouse DLL3 on CHO-K1-mDLL3 cells; assay: FACS, CHO-K1-mDLL3 cells, 20 nM antibody
[12] = target: T2, mouse DLL3 on CHO-K1-mDLL3 cells; assay: FACS, CHO-K1-mDLL3 cells, 0.00128 nM antibody
[13] = target: T2, mouse DLL3 on CHO-K1-mDLL3 cells; assay: FACS, CHO-K1-mDLL3 cells, 0.16 nM antibody
[14] = target: T2, mouse DLL3 on CHO-K1-mDLL3 cells; assay: FACS, CHO-K1-mDLL3 cells, 0.032 nM antibody
[15] = target: T2, mouse DLL3 on CHO-K1-mDLL3 cells; assay: FACS, CHO-K1-mDLL3 cells, 4 nM antibody
[16] = target: T2, mouse DLL3 on CHO-K1-mDLL3 cells; assay: FACS, CHO-K1-mDLL3 cells, 100 nM antibody
[17] = target: T3, human DLL3 protein (extracellular segment, His tag) (human, UniProt Q9NYJ7 27-492); assay: SPR (Biacore 8K), antibody captured on Protein A chip, DLL3 antigen in solution, 1:1 Langmuir fit
T3 construct: also called human DLL3-his protein; DLL3 antigen; not shown: His tag
T3 sequence: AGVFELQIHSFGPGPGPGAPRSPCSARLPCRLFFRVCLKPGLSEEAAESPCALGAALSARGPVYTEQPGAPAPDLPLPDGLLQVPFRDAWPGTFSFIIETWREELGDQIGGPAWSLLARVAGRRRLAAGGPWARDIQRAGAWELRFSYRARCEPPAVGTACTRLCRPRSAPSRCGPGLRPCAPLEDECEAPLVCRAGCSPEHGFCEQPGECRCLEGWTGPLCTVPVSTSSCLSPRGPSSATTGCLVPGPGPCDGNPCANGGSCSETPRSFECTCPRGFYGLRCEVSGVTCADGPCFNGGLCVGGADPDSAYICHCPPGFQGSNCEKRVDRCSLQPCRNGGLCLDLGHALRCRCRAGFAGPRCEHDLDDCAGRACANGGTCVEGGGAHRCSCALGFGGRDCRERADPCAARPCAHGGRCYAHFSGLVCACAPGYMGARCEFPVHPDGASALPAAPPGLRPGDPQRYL

[18] = target: T4, monkey DLL3-his protein (cynomolgus monkey, UniProt Q9NYJ7 27-490 (human entry)); assay: ELISA, coated DLL3-his
T4 construct: a bought cynomolgus DLL3-His (Acro DL3-C52H3) is also named; also called monkey DLL3 protein; cynomolgus monkey DLL3-His; not shown: His tag
T4 chain: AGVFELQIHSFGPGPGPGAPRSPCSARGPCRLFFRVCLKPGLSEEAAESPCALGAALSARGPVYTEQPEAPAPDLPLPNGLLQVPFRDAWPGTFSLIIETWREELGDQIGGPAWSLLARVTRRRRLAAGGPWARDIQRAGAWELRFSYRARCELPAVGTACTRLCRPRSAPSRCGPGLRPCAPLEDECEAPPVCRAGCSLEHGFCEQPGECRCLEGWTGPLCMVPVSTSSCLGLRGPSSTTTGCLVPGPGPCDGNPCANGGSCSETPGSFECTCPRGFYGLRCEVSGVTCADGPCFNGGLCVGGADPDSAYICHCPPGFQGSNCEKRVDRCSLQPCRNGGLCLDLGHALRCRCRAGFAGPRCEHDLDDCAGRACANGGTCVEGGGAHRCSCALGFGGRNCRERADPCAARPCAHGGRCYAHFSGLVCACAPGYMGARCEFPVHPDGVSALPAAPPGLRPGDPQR

B3: AMG757-4 scFv-hFc (Fc fusion)
scFv: QVQLQESGPGLVKPSETLSLTCTVSGGSISSYYWSWIRQPPGKCLEWIGYVYYSGTTNYNPSLKSRVTISVDTSKNQFSLKLSSVTAADTAVYYCASIAVTGFYFDYWGQGTLVTVSSGGGGSGGGGSGGGGSEIVLTQSPGTLSLSPGERVTLSCRASQRVNNNYLAWYQQRPGQAPRLLIYGASSRATGIPDRFSGSGSGTDFTLTISRLEPEDFAVYYCQQYDRSPLTFGCGTKLEIK[human IgG1 Fc with C220S (EU numbers) cut from this listing]
notes: control antibody; scFv-human IgG1 Fc, variable regions from WO2017021349A1
Kd [17]: 0.0725 nM and 0.0532 nM
koff [17]: 9.35e-05 s⁻¹ and 7.51e-05 s⁻¹
kon [17]: 1.29e+06 M⁻¹ s⁻¹ and 1.41e+06 M⁻¹ s⁻¹

B4: AMG757-4 scFv-hFc (Fc fusion)
scFv: B3 scFv
notes: VH, VL and human IgG1 Fc linked from N- to C-terminus (scFv-hFc); variable regions from WO2017021349A1; also called control antibody
binding result [18]: binds

Now from value to binder:

MFI [1]: 19600 MFI
MFI [2]: 169 MFI
MFI [3]: 309 MFI
MFI [4]: 879 MFI
MFI [5]: 113 MFI
MFI [6]: 20200 MFI
MFI [7]: 5340 MFI
MFI [8]: 15100 MFI
B1: mab008 scFv-hFc (scFv)
chain: DIVMTQSQKFMSTSVGDRVSITCKASQNVGTAVAWYQQKPGQSPKLLIFSASIRYTGVPDRFTGSGSGTDFTLTISNMQSEDLADYFCQQYSSSPYTFGGGTKLEIKEVQLQQSGPVLVKPGASVKMSCKASGYTFTDYYMNWVKRSHGKSLEWIGIINPYNGGTSYNQKFRGKATLTVDKSSNTAYMELNSLTSEDSAVYYCSRYDYDYDVEGAMDYWGQGTSVTVSS[human IgG1 Fc cut from this listing]

MFI [9]: 117 MFI
MFI [1]: 34600 MFI
MFI [2]: 243 MFI
MFI [10]: 260 MFI
MFI [11]: 354 MFI
MFI [3]: 498 MFI
MFI [4]: 1500 MFI
MFI [12]: 105 MFI
MFI [5]: 184 MFI
MFI [6]: 32200 MFI
MFI [13]: 205 MFI
MFI [14]: 152 MFI
MFI [15]: 300 MFI
MFI [7]: 9540 MFI
MFI [8]: 27700 MFI
MFI [16]: 424 MFI
B2: mab014 scFv-hFc (scFv)
chain: DIQMTQSSSSFSVSLGDRVTITCKASEDIYNRLAWYQQKPGNTPRLLISGATSLETGVPSRFSGSGSGKDFTLSITSLQTEDVATYYCQQYWSLPWTFGGGTKLEIKEVQLHQSGPELVKPGTSVKISCKASGYTFTDYYMNWVKQSHGKSLEWIGDINPNHGDTGYNQKFTGKATLTVDKSSSTAYMELRSLTSEDSAVYYCARNFFYYGTTYGWYFDVWGTGTTVTVSS[human IgG1 Fc cut from this listing]
